# Source: ChEMBL document CHEMBL4888484, “Replenishing the malaria drug discovery pipeline: Screening and hit evaluation of the MMV Hit Generation Library 1 (HGL1) against asexual blood stage Plasmodium falciparum ,using a nano luciferase reporter read-out” (2022)
# Screen size: about 150,000 compounds; about 540 (0.36%) showed an effect of 50% or more. The list shows a part of the results.
# Test system: Plasmodium falciparum
# Test: Primary screen in NF54 nanoGlo assay, in single point, at 2uM, 72h; a lower Z score goes with more inhibition
# Assay type: functional, Erythrocyte
# Details: timepoint 72 hour
Compound,% Inhibition [%],Z score
CCc1oc(C(=O)N2CCCC2)cc1C,-14,1.45
O=C(Nc1cccc2[nH]ccc12)c1cc(O)nc2ccccc12,34,-3.84
Cc1noc(OCC(=O)c2ccc(F)c(Cl)c2)n1,-10,1.95
CC(C)NC(=O)N(C)c1ccc(OC(=O)c2cc(S(=O)(=O)NC(C)C)ccc2Cl)cc1,1,-0.09
COc1ccc2c(c1)N(C(C)=O)C(C)(C)C[C@@H]2C,-6,0.75
CN1CCOC(CNCC(O)COc2cccc(C(F)(F)F)c2)C1 (stereo unspecified),14,-2.85
CC(C)Cc1nc(NC(=O)c2n[nH]c3ccccc23)n[nH]1,-14,1.68
Cc1nn(-c2ccc(F)cc2)c2[nH]nc(NC(=O)Cn3ccnc3)c12,-6,0.95
C=CCC1(CC=C)CCCN1C(=O)C[C@H]1C(=O)NCCN1Cc1ccc(OC)cc1F,-9,1.28
CCc1ncc(C(=O)N2CC[C@H](CO)C[C@@H]2C)s1,-3,0.34
OCCC[C@@H]1CN(Cc2nc3ccccc3[nH]2)CC[C@@H]1N1CCOCC1,-10,1.8
O=C1C[C@H](c2ccc(F)c(F)c2F)c2c(n(C3CCCC3)[nH]c2=O)N1,31,-3.53
c1cnc2c(-c3nc([C@H]4CCOC4)no3)cccc2c1,-15,1.88
COc1cc(C(=O)NC2CC(C)(C)NC(C)(C)C2)ccc1OCc1ccccc1Cl,31,-0.44
CN(C)c1ccc(C(=O)N2CCCCCCC2)cn1,6,-1.1
CC(C)OC(=O)[C@@H]1CCCN1CC(=O)N1CCOC2CCCCC21 (stereo partly specified),6,-0.69
C[C@@H](C(=O)N1Cc2c(C(=O)NC3CC3)nn(C)c2C1)c1ccccc1,-1,0.11
CCCCn1ncc(C(=O)N2CCN(c3ncc[nH]3)CC2)c1CC,7,-1.48
CC(C)(O)CCc1ccc(C(=O)N2CCN3CCC[C@H]3C2)cc1,-9,1.71
Cn1nc(C(=O)N2CCN(c3ccccn3)CC2)cc1C(F)(F)F,-8,1.07
Brc1ccc2[nH]cc(Cc3noc([C@@H]4CCOC4)n3)c2c1,3,-0.41

Compound,% Inhibition [%],Z score
O=C(NCc1nnc2n1CCC2)c1[nH]nc2c1CCC2,4,-0.7
O=C(CNC1(c2cccc(Cl)c2)CC1)NC1CCCC1,-5,0.56
CCc1oc2ccccc2c1[C@@H]1CC(=O)Nc2[nH]nc(C(=O)NC)c21,-10,1.28
COc1ccc(NC(=O)Cn2cnc3nc(N4CCCC4)sc3c2=O)c(OC)c1,-10,1.62
CO[C@@]12CC[C@@H](O)C[C@@H]1N(C(=O)c1nc3ccccc3[nH]1)CC2,-3,0.59
Cc1ccc(NC(=O)CC(=O)N(C)Cc2nonc2C)c(C)c1,-2,0.25
Cn1ccc(C(=O)Nc2nc3ccc(Br)cn3n2)cc1=O,-13,1.88
Oc1ccccc1CNc1cccc2cccnc12,96,-8.95
CC(=O)N(C)CCOc1ccc(N)cc1,-3,0.38
C=CCN(CC=C)S(=O)(=O)c1ccc(C)cc1,-10,1.85
c1cc(-c2nc3ccccc3o2)cc(-c2nc3ccccc3o2)c1,-13,2.52
Cc1nccc(NC2CCC(Nc3ccnc(C)n3)CC2)n1 (stereo unspecified),-17,3.2
O=C(c1cccs1)N1CC[C@@](O)(c2ccccc2)[C@H](N2CCCC2)C1,1,-0.16
CCC[C@]1(CO)CCCN(C(=O)c2c[nH]c(=O)[nH]c2=O)C1,3,-0.42
CCCS(=O)(=O)N1Cc2c(-c3nc(C)no3)nn(C)c2C1,-2,0.24
O=C(N1CCOCC1)N1CCC[C@H]1c1ccc2c(c1)OCCO2,3,-0.31
Cc1cccnc1CNS(=O)(=O)c1cccc(C(=O)N2CCNCC2)c1,-13,1.46
CCOC(=O)C1(C(=O)Nc2cccc(C)c2)CCC1,-11,1.41
CCC(Oc1ccc2c(c1)C(c1ccc(F)cc1)N(C(=O)C1CCCC1)CC2)C(=O)NC(C)C (stereo unspecified),-4,0.76
COCCc1noc(CCn2c(C)cc(O)cc2=O)n1,-7,1.07
CC1(C)C(CNC(=O)CCn2cc(C(N)=O)c(=O)[nH]c2=O)C1(C)C,19,-2.23

Compound,% Inhibition [%],Z score
Cc1n[nH]c(C)c1CN1CCC[C@H](N(C)C)CC1,-9,1.16
O=C1N(Cc2ccccc2)c2cccc3cccc(c23)N1Cc1ccccc1,8,-1.58
COCC(=O)Nc1cc(C(=O)N(C)Cc2ccc(F)cc2)c2c(c1)ncn2CCc1ccccc1,-11,1.62
COCCC1(CNC(=O)N[C@@H](C)c2nc(C)cs2)CCCC1,-4,0.46
OC1(c2ncc(Br)s2)CCC1,-17,2.46
Cc1ccc2cc1Oc1cccc(c1)CO[C@H]1CN(C(=O)CN3CCCN(C)CC3)C[C@@H]1NC(=O)CN(C)C2=O,-21,2.7
COc1ccc([C@@]2(CC(=O)N3CCNC(=O)CC3)CC(=O)N(C3CCCC3)C2=O)cc1,-3,0.6
CN1CCN([C@H]2CCN(C(=O)CCc3ccccc3)C[C@H]2CCCO)CC1,1,-0.13
Cc1cc(Oc2ncccc2C#N)ccc1NC(=O)c1cn(C)cn1,22,-2.55
CC(=O)Nc1ccc(NC(=O)c2ccc(S(=O)(=O)N3CCCCCC3)s2)cc1,-16,2.15
O=C(Cn1cncc(C(=O)NC2CCCC2)c1=O)Nc1ccc2c(c1)OCCO2,11,-1.82
NC(=O)c1csc(C(=O)N2C[C@H](c3ccccc3)c3ccccc32)c1,-6,0.9
C[C@@H](CC(C)(C)N1CCOCC1)OC(=O)C(C)(C)C,-8,1.58
C[C@H]1CCCCN1C1CN(Cc2cnc(N3CCCC3)s2)C1,14,-1.81
CS(=O)(=O)N1CCC(CS(=O)(=O)Nc2cccc(F)c2)CC1,15,-1.83
CN(C)c1ccc(S(=O)(=O)NC[C@@H]2CCN(C)[C@H]2c2cccnc2)cn1,-1,0.25
O=C(NC[C@H]1CCN(C/C=C/c2ccccc2)C1)c1cncs1,-2,0.28
O=C(N[C@H]1CC[C@@H](CO)CC1)c1cccc(NCc2ccccn2)c1,-25,3.84
COCCC(C)(C)C(=O)N[C@@H]1C[C@H]1c1cc(F)c(F)c(F)c1,1,-0.08
CCO[C@@H](CC)CNC(=O)N(C)CCn1ccnc1,-8,1.19
Cc1csc(NC(=O)[C@H]2CCCN(S(=O)(=O)c3c(C)[nH]c(=O)[nH]c3=O)C2)n1,-1,0.13

Compound,% Inhibition [%],Z score
NC(=O)c1cn(CC(=O)N2C[C@H]3C[C@H](O)[C@H](O)C[C@H]3C2)c2ccccc12,-16,1.51
COc1ccc(-c2c[nH]c(C(=O)N3CCCCC3)c2)c(OC)n1,-23,3.49
Cc1cc(C)nc(Cn2ccnc2-c2cc3c(cc2C)OCCO3)n1,8,-1.35
CCCNS(=O)(=O)c1cc(-c2c(CC)noc2NC(C)=O)ccc1OC,-5,0.96
O=C(N[C@H]1CCOC1)c1cccc(S(=O)(=O)NCC(=O)N2CCCC2)c1,-6,1.14
Fc1ccccc1CN1CC[C@@H]2CN(Cc3ccc4[nH]ccc4c3)C[C@@H]21,6,-1.03
O=C(Nc1ccccc1)C(=O)N1C[C@@H](F)C[C@H]1CNC(=O)c1ccncc1,-11,1.3
Cc1cc(C)cc(-n2nc(C(=O)NCc3cccnc3)c(=O)n(Cc3ccc(F)cc3)c2=O)c1,-2,0.21
CC(C)OCCS(=O)(=O)N1CCCc2sccc2C1,-14,1.27
O=C(NC1CCCC1)c1cccnc1Oc1cccc(NS(=O)(=O)c2ccccc2)c1,-11,1.63
CCc1csc(CC2CCN(Cc3cc(C(=O)O)ccc3Cl)CC2)n1,-9,1.42
COc1cc(=O)n2c(c1C(=O)N[C@H]1CCCc3ccccc31)CCC2,-9,1.05
COc1ccc(NC(=O)c2cnc(N3CCN(C)CC3)nc2C)cc1OC,-5,0.7
COCc1nc(CN2CCO[C@H](c3nc(C(C)C)n[nH]3)C2)cs1,29,-3.85
CCCc1ncncc1-c1nc(COc2cccc(F)c2)nn1CC(=O)O,-14,2.51
Cc1ccc(CN(C)C(=O)Nc2ccc3[nH]c(=O)[nH]c3c2)nc1,-6,0.53
Cn1c(CNc2ccc(C(=O)N[C@@]3(C)CCS(=O)(=O)C3)cc2)nc2ccccc21,-7,1.08
CCC(=O)N(CC(=O)N1CCc2sccc2[C@@H]1COc1cccc(F)c1)CC(C)C,-9,0.79
CN(C)c1ncc2c(n1)CC[C@H](NC(=O)COc1ccccc1F)C2,9,-1.17
CC(C)[C@@H](C(N)=O)n1cc(-c2ccc(-c3ccccc3C#N)o2)nn1,-8,1.56
